Results taken from PubChem BioAssay AID686979 (National Center for Advancing Translational Sciences (NCATS), 2013).
In all, about 420,000 compounds went through this assay and about 50,000 (12%) were called active. This list was built around the results that the source calls inconclusive (neither active nor inactive); the mix of calls is not that of the screen. Calls follow the shape of the dose curve; as a rule, active = well fitted inhibition curve with a large enough effect; inconclusive = small, poorly fitted or top-dose-only effect; inactive = flat fitted curve, though single readings scatter. Potencies of inconclusive entries are left out as doubtful fits.

Experiment: qHTS for Inhibitors of human tyrosyl-DNA phosphodiesterase 1 (TDP1): qHTS in cells in presence of CPT; also: nearly all actives have a fitted effect of over 55% in size
Conditions: chicken DT40 Tdp1-/-;hTDP1 cells + 20 nM CPT, ATP luminescence, 48 h; activity change, negative = growth inhibition: at 46.2 µM (top of the series) unless noted
How it was run: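 Chicken DT40 Tdp1-/- cells stably complemented with human TDP1 were seeded at 400 cells/well in medium containing 20 nM camptothecin, exposed to pin-transferred compounds, and grown at 37 °C for at least 48 hr. Viability was read as ATP luminescence.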
% is scaled to controls: 0 for no effect and ±100 for the full control effect; potency is read from the fitted curve at half-maximal effect; tags tell the direction and shape of the fitted curve.

SMILES | Potency | activity change, negative = growth inhibition
CC(C)n1cnc2c(NCc3ccccc3)cc(OCC3CCN(C)CC3)cc21 | active: 20.6 µM | –
Cc1nnc(NC(=O)C2CCN(c3nnnn3-c3ccccc3)CC2)s1 | inconclusive [inhibitor, partial curve, poor fit] | –
Oc1ccc2ccccc2c1/C=N/c1nccs1 | inactive | –
O=C(N[C@@H](c1ccccc1)[C@H](O)c1ccccc1)[C@@H]1CCCN1C(=O)OCc1ccccc1 | inactive | –
Cc1nc2c(ccc3c2ccc2nc(C)sc23)s1 | inactive | –
O=C(Nc1cccc([N+](=O)[O-])c1)Nc1cccc([N+](=O)[O-])c1 | active: 4.61 µM | –
O=C1OCCN1C(=O)[C@H]1[C@H](c2ccc(Cl)cc2)C(c2ccc(F)cc2)=NN1c1ccccc1 | inactive | –
CCN(c1ccccc1)S(=O)(=O)c1ccc(C(=O)NCC(=O)Nc2ccc(F)c(F)c2F)cc1 | active: 14.6 µM | –
N#CCC(=O)Nc1ccc(C(=O)N2CCN(S(=O)(=O)c3ccc4ccccc4c3)CC2)cc1 | inactive | –
COc1ccc(NC(=O)CCS(=O)(=O)c2cc3c4c(c2)CCN4C(=O)CC3)c(OC)c1 | inactive | –
Fc1cccc(Cc2c(C3CCCCC3)nc3ccc(Br)cn23)c1 | inconclusive [inhibitor, single point] | –
O=C(COc1ccccc1)NCC(c1ccco1)N1CCN(c2ccccc2F)CC1 (stereo not given) | inconclusive [inhibitor, single point] | –
CCOC(=O)c1ccc(N=C2SC(C(=O)NCCc3ccccc3)CC(=O)N2C)cc1 (stereo not given) | inconclusive [inhibitor, single point] | –
O=C(COc1ccc2oc3c(c2c1)CCCC3)Nc1ccccn1 | inactive | –
CC(=O)c1c(C)[nH]c(C(=O)COC(=O)COc2ccccc2)c1C | inactive | –
CC(CSc1nc2ccccc2s1)Cn1c(N2CCCC2)nc2c1c(=O)[nH]c(=O)n2C (stereo not given) | inconclusive [inhibitor, single point] | –
CCn1c(SCC#N)nc2ccccc2c1=O | inconclusive [inhibitor, single point] | –
CC(=O)c1ccc(Oc2ncnc3c2oc2ccccc23)cc1 | – | inconclusive: -32% [inhibitor]
COc1ccc(C(=O)N2c3ccc(F)cc3CCC2C)cc1OC (stereo not given) | inconclusive [inhibitor, single point] | –
CCC(C)c1ccc(OCC(=O)Nc2ccc3c(c2)C(=O)NC3=O)cc1 (stereo not given) | inactive | –
CCOC(=O)C1=C(C)N=C2SC(C(=O)OC)=CC(=O)N2C1c1ccc(F)cc1 (stereo not given) | inconclusive [inhibitor, full curve] | –
COc1ccc(CC(=O)N/N=C(/C)CC(=O)N(C)c2ccccc2)cc1 | inactive | –
CCCS(=O)(=O)c1nc(S(=O)(=O)c2ccc(C)cc2)c(N2CCCCC2)s1 | inconclusive [inhibitor, single point] | –

SMILES | Potency | activity change, negative = growth inhibition
CC(CC(=O)Nc1cccc(S(=O)(=O)N2CCCCC2)c1)c1ccccc1 (stereo not given) | inconclusive [inhibitor, single point] | –
Cc1ccc2c(c1)-c1c(ssc1=S)C(C)(C)N2C(=O)CSC1=NCCS1 | inconclusive [inhibitor, single point] | –
O=C(COc1ccc2oc3c(c2c1)CCCC3)Nc1cccc(Br)c1 | inconclusive [inhibitor, single point] | –
CC1CCC(C(C)C)C(OC(=O)COC(=O)c2ccc(N)cc2)C1 (stereo not given) | inconclusive [inhibitor, single point] | –
CCOC(=O)/C(=N\Nc1ccccc1Cl)N1CC(C)OC(C)C1 (stereo not given) | inconclusive [inhibitor, single point] | –
CCN1/C(=C\c2ccc3ccccc3[n+]2CC)Sc2cc(C)ccc21 | active: 0.184 µM | –
COc1ccc(C(=O)N/N=C\c2ccc(OC)c(COc3ccccc3Br)c2)c(OC)c1 | active: 23.1 µM | –
COc1cc2sc(-c3ccccc3OC)c(-c3ccc(OCCN4CCCCC4)cc3)c2cc1OC | inconclusive [inhibitor, single point] | –
CN(C(=O)C1CCN(S(=O)(=O)c2ccccc2[N+](=O)[O-])CC1)C1CCCCC1 | inconclusive [inhibitor, single point] | –
COc1ccc2c(c1)[C@@H]1[C@H](CO2)[C@H](c2ccccc2)[C@]2(C)C(=O)NCC(=O)N12 | inactive | –
COC(=O)CC1(c2cccc3ccccc23)C(=O)c2ccccc2C1=O | inconclusive [inhibitor, single point] | –
O=C(O)c1cccc(NC(=O)c2ccc(S(=O)(=O)c3ccccc3)cc2)c1 | inactive | –
Cc1nc(N2CCN(C(=O)c3ccco3)CC2)c(C#N)c2c1CCCC2 | inactive | –
COc1ccc(NC(=O)C2Cc3c(-c4ccc5c(c4)OCO5)ccnc3O2)cc1 (stereo not given) | active: 5.17 µM | –
C#CCOCCOCCOCCNc1nc(N2CCN(C(=O)CCCCCCCCCCNC(=O)[C@@H](CCC(=O)O)n3cc(CCCCCN)nn3)CC2)nc(N2CCN(C(=O)CCCCCCCCCCNC(=O)[C@@H](CCC(=O)O)n3cc(CCCCCN)nn3)CC2)n1 | inactive | –
Cc1ccc(CCNC(=O)C2CCCN(S(=O)(=O)c3cccs3)C2)cc1 (stereo not given) | inconclusive [inhibitor, partial curve, poor fit] | –
O=C(CNc1ccccc1)N/N=C/c1c[nH]c2ccccc12 | inconclusive [inhibitor, partial curve] | –
O=C1COc2ccc(S(=O)(=O)N3CCc4ccccc43)cc2N1 | inconclusive [inhibitor, single point] | –
Cc1nnc(N2C(=O)c3oc4ccccc4c(=O)c3C2c2cccc(OCCC(C)C)c2)s1 (stereo not given) | inactive | –
CCCCn1nnnc1C(c1cc2ccccc2o1)N(C)Cc1ccc(Cl)cc1 (stereo not given) | inconclusive [inhibitor, single point] | –
CCCCc1ccc(C(=O)c2c(N)c(C(=O)Nc3cccc(OC)c3)c3ccccn23)cc1 | inconclusive [inhibitor, partial curve] | –
Cc1oc(-c2ccccc2)nc1C(=O)N1CCN(c2ccc(F)cc2)CC1 | inconclusive [inhibitor, single point] | –
